Assay results published in PubChem BioAssay AID686979 (National Center for Advancing Translational Sciences (NCATS), 2013).
The whole screen tested about 420,000 compounds, of which about 50,000 (12%) were called active. Inconclusive results, whose numbers are uncertain, are shown with a selection of clear calls. The call rests on the fitted dose curve; in most records, active means well fitted inhibition curve with a large enough effect; inconclusive means small, poorly fitted or top-dose-only effect; inactive means flat fitted curve, though single readings scatter. Potencies of inconclusive entries are left out as doubtful fits.

experiment: qHTS for Inhibitors of human tyrosyl-DNA phosphodiesterase 1 (TDP1): qHTS in cells in presence of CPT; settings: chicken DT40 Tdp1-/-;hTDP1 cells + 20 nM CPT, ATP luminescence, 48 h; series mostly up to 46.2 µM; further: nearly all actives have a fitted effect of over 55% in size
Summary of the method: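 Cell growth measured by CellTiter-Glo luminescence after a minimum 48 h, 37 C compound exposure with 20 nM CPT in Tdp1-knockout DT40 cells stably expressing hTDP1, seeded 400/well; qHTS titration format.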
Potency means the concentration at half of the fitted maximal effect; tags describe the fitted curve by direction and shape.

SMILES	Potency
Cc1cccc(C(=O)Nc2ccc(N3CC=C(c4ccccc4C)CC3)c(C(=O)O)c2)c1	inconclusive [inhibitor, single point]
Cc1ccc(CN2C(=O)c3ccccc3Sc3ccc(C(=O)N4CCOCC4)cc32)cc1	inconclusive [inhibitor, single point]
Nc1cccc(-c2c[nH]c3ncc(-c4cccnc4)cc23)c1	active: 8.2 µM
COc1ccc(-c2ccc3oc(-c4ccc(OC)cc4)c(-c4ccc(OC)cc4)c3c2)cc1	inconclusive [inhibitor, partial curve]
Nc1ccc(C(=O)OCC(=O)N2c3ccccc3Sc3ccccc32)cc1[N+](=O)[O-]	inconclusive [inhibitor, single point]
Cc1sc2ncnc(NCCc3ccc(S(N)(=O)=O)cc3)c2c1C	active: 2.91 µM
COC(=O)c1ccccc1NC(=O)CNc1cc(OC)c(OC)cc1C	inconclusive [inhibitor, single point]
O=c1c(C=NCCCn2ccnc2)c(-c2ccccc2)[nH]n1-c1nc2ccccc2s1	inconclusive [inhibitor, single point]
COc1ccc(-c2cn3cc(C)ccc3n2)cc1F	inconclusive [inhibitor, single point]
O=C(CN1CCN(S(=O)(=O)c2ccc(Cl)cc2)CC1)NC(=O)NC1CCCCC1	inactive
CCC(c1nnnn1-c1ccc2c(c1)OCCO2)N1CCN(c2ncccn2)CC1 (configuration not stated)	inconclusive [inhibitor, single point]
CC1=C(C(=O)N2CCCCC2)C(c2ccc(Cl)cc2)n2c(nc3ccccc32)N1 (configuration not stated)	inconclusive [inhibitor, single point]
COc1cc(NC(=O)c2ccccc2-c2ccccc2)cc(OC)c1	inconclusive [inhibitor, single point]
COc1ccc(NCC(=O)Nc2cccc(C(F)(F)F)c2)cc1S(=O)(=O)N1CCOCC1	inconclusive [inhibitor, single point]
Cc1cc(C)nc(SCC(=O)c2ccc3c(c2)OCCO3)n1	inconclusive [inhibitor, single point]
Cc1cc(-c2nnc(-c3cc4ccccc4oc3=O)o2)c(C)n1-c1ccccc1	inconclusive [inhibitor, single point]
Cc1ccc(NC(=O)c2oc3ccc(S(=O)(=O)N(C)C4CCCCC4)cc3c2C)c(C)c1	inconclusive [inhibitor, single point]
